# Reference: article PMC12136788
# Some of the results follow.
# B1: ENSG00000136451:be:win_3551|3pUTR|ENSG00000136451|bound_else_gene|NA|bound_elsewhere_windowed (ssRNA)
# RNA: GGGAGUUCUACAGUCCGACGAUCACUACUGGAAGGACUCGUGUAGGGAAAGCCCAAGAAUGACCUUGCUGAGGCCUGGAUUGGGAGGCACAGUGGCCACAUUUGGAGGAAGUUCACAUUUCCUGGCAUGCAGACCCAAAACUGCAACAGAGGAUUGAGCAUCA
# B2: chr2:223959526:223959698:+|CDS|ENSG00000135900|unk|FALSE|unique (ssRNA)
# RNA: GGGAGUUCUACAGUCCGACGAUCCUGGGAUUACCAUGCAGAAAUACAAGCUUUUGGACAUCGGUUACAGGAAAACUUUUCCUUAGAUCUUCUCAAAACUGCAUUUGUUAAUAGCUGCUAUAUUAAAAGUGAGGAGGCCAAACGCAACAGAGGAUUGAGCAUCA
# B3: ENSG00000126261:stop:overlap|stop_codon|ENSG00000126261|stop_codon|NA|stop_codon (ssRNA)
# RNA: GGGAGUUCUACAGUCCGACGAUCAUCUCGUGCUCACCGGUUUCUCCCACAUCGACCUGCCACCAGGGUCUCACUAUUUUGCUUAGGCUGGUCUUGAAGGUCUGGGCUCAAGCGAUUCUCUCACUUUGUCCUCCCAAAGUGUUGCAACAGAGGAUUGAGCAUCA
# B4: ENSG00000136451:be:win_1201|CDS|ENSG00000136451|bound_else_gene|NA|bound_elsewhere_windowed (ssRNA)
# RNA: GGGAGUUCUACAGUCCGACGAUCUUCAGUAUAACAUCCUCUGUGUCGUCUGGGACUAUGUCAAACCCAGUCACAGUGGCAGCUGCAAUGAGCAUGAGAAGUCCAGUAAAUGUUUCAAGUGCAGUUAACAUAACCAGCCCAAUGCAACAGAGGAUUGAGCAUCA
# B5: chr5:150709129:150709230:-|3pUTR|ENSG00000132912|msi1|total|mutant (ssRNA)
# RNA: GGGAGUUCUACAGUCCGACGAUCCACAAAACACUUUGAUCAUAAACUUUUUUCUUCAGAAGCCAAACUAACUUGCAGAAUAACCGAGCCACUGGUUUAAUGUUUCCUCAAGACCGGUUUCCGUGUAAGCCCGUAUUCUGUGUGCAACAGAGGAUUGAGCAUCA
# B6: ENSG00000107863:be:win_3051|CDS|ENSG00000107863|bound_else_gene|NA|bound_elsewhere_windowed (ssRNA)
# RNA: GGGAGUUCUACAGUCCGACGAUCAUGCCUGUUUCAGGCUGAAGACAGAGAUGAUAUGCUAGCUUGGAUCAAGACGAUCCAGGAGAGCAGCAACCUAAACGAAGAGGACACUGGAGUCACUAACAGGGAUCUAAUUAGUCGAAGCAACAGAGGAUUGAGCAUCA
# B7: chr10:117282838:117282939:-|3pUTR|ENSG00000165650|unk|total|mutant (ssRNA)
# RNA: GGGAGUUCUACAGUCCGACGAUCCCCCUUGUGUUAUUUUUCUUCCUCUUGGUUUUUGAAUCCGUGUUAAACCGAAUACUGUCCCGAUUCUUAAAAUAUUUUCAUUUCCAUCAUGGUUAUAACAAAUUUGCUGCAUGCCCAAACCAACAGAGGAUUGAGCAUCA
# B8: ENSG00000107863:be:win_1|CDS|ENSG00000107863|bound_else_gene|NA|bound_elsewhere_windowed (ssRNA)
# RNA: GGGAGUUCUACAGUCCGACGAUCAUGAUGGCCACGCGUCGGACUGGUCUGUCUGAGGGAGAUGGUGACAAGCUCAAGGCCUGCGAGGUCUCAAAAAAUAAAGAUGGAAAAGAACAAAGUGAAACUGUAUCACUGUCUGAAGAUCAACAGAGGAUUGAGCAUCA
# B9: chr17:46339502:46339774:-|CDS|ENSG00000228696|control|control|control (ssRNA)
# RNA: GGGAGUUCUACAGUCCGACGAUCUGUAGUCACGUGGAAUUUGGAAUGUGGAAAGGAGGUAGAAGUCAUCCUUUCCUCCCCCAUAGCAGCAGGUGUGCAGGCUCUGGUGGUCAGCUGGACUCCAUACUCCCCCACCAGUCACCACAACAGAGGAUUGAGCAUCA
# B10: ENSG00000198589:be:win_6251|CDS|ENSG00000198589|bound_else_gene|NA|bound_elsewhere_windowed (ssRNA)
# RNA: GGGAGUUCUACAGUCCGACGAUCGCACUCUUUCUGUCACCUCCUCCGAACUCUAUUUUGAGGUGGAUGAAGAGGAUCCUAACUUCAAAAAAAUCGACCCCAAGAUCUUGGCAUAUACAGAAGGGCUGCAUGGAAAAUGGCUGUCAACAGAGGAUUGAGCAUCA
# B11: chr5:141516432:141516515:-|3pUTR|ENSG00000131504|msi1_unk|total|mutant (ssRNA)
# RNA: GGGAGUUCUACAGUCCGACGAUCCUCAGACAAGGCCCAGCCUGCUUUUUCUCAGCCCUGACUUUCUAAUGGGCUUUCCCCCCCCGGUCAGUCUUGCUGGAUUUGUGCUUUUCUUUUGUGGUUUCUCUGGCCCUGAGAACCGCACAACAGAGGAUUGAGCAUCA
# B12: chr11:13729208:13729309:+|3pUTR|ENSG00000197601|unk|FALSE|unique (ssRNA)
# RNA: GGGAGUUCUACAGUCCGACGAUCAAAGUUGGUAGAUAUUUGAUUCUUCAUUUUUUGUUUUUUUCAUUAGUUGAAGUGGGUUUUAGUUUUGUUUAAAAUUAUAACCAGCGUAUUUUCACAUCAUUCUGUAAGUUAAAUGAUAUCCAACAGAGGAUUGAGCAUCA
# B13: chr6:53267885:53267986:-|3pUTR|ENSG00000012660|msi1_unk|total|mutant (ssRNA)
# RNA: GGGAGUUCUACAGUCCGACGAUCUUUAAUGUAAAUCUAACCGUACUUGUAAUUUCUUUCUGCUCCGAAUCUAAAGAUGUGUUCCGAACCUCUUGUUUAAAAAUAACCGACUGCUUAUCAUAAAAUCACAUCUCACACAUUUGACAACAGAGGAUUGAGCAUCA
# B14: chr2:135724104:135724205:+|CDS|ENSG00000048991|msi1|total|mutant (ssRNA)
# RNA: GGGAGUUCUACAGUCCGACGAUCCAACACUGCCAACCCUGAACGCUCUAAACCCAGUGACUUGGCCUCCACCUACACCGUCUCCGCCACAUUCCCCUCCAUUUCAGCUGCACAGAAUGCACUGAAGAAACAAAUUAACUCAGUCAACAGAGGAUUGAGCAUCA
# B15: chr2:96375651:96375752:+|3pUTR|ENSG00000121152|unk|FALSE|unique (ssRNA)
# RNA: GGGAGUUCUACAGUCCGACGAUCAUUGACUAAGACAGUGGGUAUGCAAGAUAAGUUUAUUUUAUAUAAAAUACUUUGGGAAGUAGGUGUUCUAGGACUGGUGUGACAGUUCCAUGAAAUUAUGAGAGACCGGGGAUCCUUCCACAACAGAGGAUUGAGCAUCA
# B16: chr16:68260521:68260622:+|3pUTR|ENSG00000103066|msi1|total|mutant (ssRNA)
# RNA: GGGAGUUCUACAGUCCGACGAUCUCGCAGCUUCCCUGAGCUGCACCUCUUGCUAACCCCACCAUCACACUGCCACCCUGCCCCCGGGUCUCACCCGUACCAAGUGGGUCAGCACAGGGCUGAGGAUGGGGCUCCUAUCCACCCCAACAGAGGAUUGAGCAUCA
# B17: ENSG00000159459:stop:overlap|stop_codon|ENSG00000159459|stop_codon|NA|stop_codon (ssRNA)
# RNA: GGGAGUUCUACAGUCCGACGAUCUCCGCUCACUGACCUCUCCCUCUCUGACUCAAGCAAUUCUCCCACCUCAGCCUCCCGAAUAGCUGGGACCACAGUGGUGGGAUCAGCAAGUUGAUUUUUAUACUGCUUUCUUGCAUCAUUCAACAGAGGAUUGAGCAUCA
# B18: chr8:97851540:97851652:+|3pUTR|ENSG00000104341|msi1_unk|FALSE|overlapping (ssRNA)
# RNA: GGGAGUUCUACAGUCCGACGAUCCACUUUUGCCAUGAGCCUCUCUGAGCUUGUUUGUUGCUGAAAUGCUACUUUUUAAAAUUUAGAUGUUAGAUUGAAAACUGUAGUUUUCAACAUAUGCUUUGCUGGAACACUGUGAUAGAUCAACAGAGGAUUGAGCAUCA
# B19: chr14:102729990:102730091:+|3pUTR|ENSG00000089902|msi1|FALSE|unique (ssRNA)
# RNA: GGGAGUUCUACAGUCCGACGAUCUGCGAUGCUCUUUCUGCCAGUCCCUGAAUCUCUGCAGCUUCUCUUACCUGUCUUACCUGUAGUAAAGCACAAUUGCAGUGGCGUCGCAUUCAGAAGAAGGGAAGGUCAGCAGAGGCUAUGCAACAGAGGAUUGAGCAUCA
# B20: ENSG00000198589:be:win_3901|CDS|ENSG00000198589|bound_else_gene|NA|bound_elsewhere_windowed (ssRNA)
# RNA: GGGAGUUCUACAGUCCGACGAUCUCUACUGUGUUUCGUAUUCCUGAGUUCAACUGGUCUCAGAUGCAUCAACGUUUGCUCACUGAUCUAUUAUUUUCAAUAGAAACAGAUAUACAGAUGUGGAGAAGCCAUUCAACAAAGACACAACAGAGGAUUGAGCAUCA
# B21: chr18:58535911:58536012:-|CDS|ENSG00000198796|msi1|total|mutant (ssRNA)
# RNA: GGGAGUUCUACAGUCCGACGAUCUCUGACCUGCCCUAAAAUCCCCGAGUCCUCUGCCGAUCCCAUUGAUGAGAUAAGUGUGACCGAGUACACCAGGGCUGGAAAACCAGAGCCCUCUGAAACCACACCACAGGGCGCCAGAGACAACAGAGGAUUGAGCAUCA
# B22: chr7:116918052:116918157:+|3pUTR|ENSG00000198898|unk|total|mutant (ssRNA)
# RNA: GGGAGUUCUACAGUCCGACGAUCUUUUCAUUUUGUUUGUUCUAAGAGGAUUGAAAAUCAGUUCCGUUUAAAUGUCUUUCUGUCCGGCCUUUCUUUCUUACAAUGAAGAGAUGAUUCUUCCCGUUUAUGGUUAAAAGUUUUUGACAACAGAGGAUUGAGCAUCA
# Target: T1, UNK ZnF1-6 (called full-length) (human, UniProt Q9C0B0 30-357)
# T1 sequence: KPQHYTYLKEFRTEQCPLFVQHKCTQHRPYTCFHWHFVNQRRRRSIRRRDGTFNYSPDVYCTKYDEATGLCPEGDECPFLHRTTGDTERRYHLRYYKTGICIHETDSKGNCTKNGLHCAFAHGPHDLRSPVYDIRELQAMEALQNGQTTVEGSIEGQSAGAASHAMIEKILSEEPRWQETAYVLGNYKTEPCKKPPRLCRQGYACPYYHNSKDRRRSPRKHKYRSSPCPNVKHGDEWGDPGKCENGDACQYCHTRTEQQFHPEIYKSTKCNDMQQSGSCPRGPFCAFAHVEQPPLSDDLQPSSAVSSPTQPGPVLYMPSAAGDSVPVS
# Assay: nsRBNS (natural sequence RNA bind-n-seq); RBNS binding buffer (assumed for nsRBNS): 25 mM Tris pH 7.5, 150 mM KCl, 3 mM MgCl2, 0.01% Triton X-100, 500 ug/ml BSA, 20 U/ml SUPERase-In, 4 C; UNK is unkempt and MSI1 is Musashi-1; names of the RNAs are library labels; protein concentration not given here; high values mean tight binding
row,Binder,binding signal
1,B1,0.956 enrichment R
2,B2,0.468 enrichment R
3,B3,0.365 enrichment R
4,B4,0.462 enrichment R
5,B5,0.324 enrichment R
6,B6,0.635 enrichment R
7,B7,0.711 enrichment R
8,B8,0.711 enrichment R
9,B9,0.972 enrichment R
10,B10,0.599 enrichment R
11,B11,0.574 enrichment R
12,B12,1.5 enrichment R
13,B13,0.478 enrichment R
14,B14,0.85 enrichment R
15,B15,0.838 enrichment R
16,B16,0.803 enrichment R
17,B17,0.706 enrichment R
18,B18,0.568 enrichment R
19,B19,0.535 enrichment R
20,B20,0.382 enrichment R
21,B21,0.72 enrichment R
22,B22,0.615 enrichment R
